The structures appear in SMILES notation. Among all 50,000 compounds or so, about 800 (1.6%) showed an effect of 50% or more. Some of the results follow.

In the experiment the target is Bcl-2-like protein 10 (Homo sapiens) (UniProt Q9HD36). Kind of experiment: TR3 peptide-Bcl-B binding displacers, biochemical primary FP assay, phenotype converters (AID 1240).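 Further: 0% = Bcl-B with tracer peptide and DMSO and 100% = tracer peptide lacking Bcl-B.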 The note with it: GST-Bcl-B / FITC-TR3 peptide fluorescence polarization; stronger effect = higher value; compound at 3.75 mg/L. (Fluorescence polarisation rises when a labelled molecule tumbles more slowly, as on binding a larger partner.)
Sequence of UniProt Q9HD36 (Q9HD36 whole entry, looked up): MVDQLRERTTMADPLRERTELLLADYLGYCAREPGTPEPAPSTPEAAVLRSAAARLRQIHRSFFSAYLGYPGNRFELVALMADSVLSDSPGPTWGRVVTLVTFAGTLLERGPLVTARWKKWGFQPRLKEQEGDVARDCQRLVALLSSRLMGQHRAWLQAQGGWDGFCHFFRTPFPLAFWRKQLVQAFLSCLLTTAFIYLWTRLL
For `Cc1ccc(S(=O)(=O)NCCNc2c(Cl)cccc2[N+](=O)[O-])cc1`, the displacement turned out to be 12.2%.

For the compound `O=C1C(Cl)=C(N2CCOCC2)C(=O)C(Cl)=C1/C=C/N1CCOCC1`, the displacement was determined as 24.3%.

For `COc1cc(C(=O)NN2C(=O)/C(=C/c3ccc(Cl)cc3Cl)SC2=S)ccc1O`, the displacement was -8.9%.

Regarding `CCN(CC)C(=O)c1cnn(-c2ccccc2)c1NC(=O)c1cccc(F)c1`, the displacement is -1.1%.

With `COc1ccc(C(=O)Nc2cccc(C(=O)Nc3cccc(O)c3)c2)cc1`, the displacement is 1.6%.

Consider `O=C(Nc1ccc(S(=O)(=O)Nc2cnc3ccccc3n2)cc1)c1ccc(Cl)cc1Cl`, for which the displacement was -1.5%.

As to `COc1ccc(C(=O)C(Sc2nnnn2-c2ccccc2)c2ccc([N+](=O)[O-])cc2)cc1` (configuration not stated), the displacement came to 1.7%.

For `COc1ccc(C2/C(=C(/O)c3ccccc3)C(=O)C(=O)N2c2cccc(Br)c2)c(OC)c1` (configuration not stated), the displacement is -0.7%.

As to `CCOC(=O)C1=C(C)Nc2ccccc2S1`, the displacement is -2.7%.

`COc1ccccc1C(NC(=O)Cc1ccccc1)c1ccc2cccnc2c1O` (configuration not stated): the displacement is -0.4%.

For the compound `O=S(=O)(NCCOc1ccccc1F)c1ccccc1`, the displacement is -8.7%.

As for `Cc1cccc(NC(=S)NC(=O)/C=C/c2ccccc2)c1`, the displacement amounted to 3.8%.

Consider `Cc1ccc(C(=O)Nc2ccc(O)c(-c3nc4ccccc4s3)c2)cc1[N+](=O)[O-]`, for which the displacement is -3.2%.

Take `O=C(N/N=C/c1cccs1)c1cc(-c2ccc3ccccc3c2)n[nH]1`: the displacement was -4%.

`O=C(N/N=C/c1cc2c(cc1Br)OCO2)c1cccc2ccccc12`: the displacement amounted to 6.1%.

Consider `O=C(Nc1nc2ccc(Cl)cc2s1)c1ccc(Br)s1`, for which the displacement was -26%.

Regarding `O=C(Nc1ccc(Cl)cc1)N1CCN(c2ccc(Cl)cc2)CC1`, the displacement is 0.3%.

As for `O=C(C(c1ccccc1)c1ccccc1)N1CCN(Cc2ccccc2[N+](=O)[O-])CC1`, the displacement is -7.5%.

Turning to `Cc1ccc(NC2=C(Cl)C(=O)N(c3ccc(Cl)cc3)C2=O)cc1C`, the displacement worked out at 8%.

Turning to `CCOC(=O)c1ccc(-n2c(C)cc(/C=C3\SC(=O)NC3=O)c2C)cc1`, the displacement turned out to be 11.4%.

Take `COc1ccc(C)cc1NC(=O)COc1ccc(Br)cc1C`: the displacement turned out to be 7.7%.

`CCOC(=O)c1ccc(NC(=O)C(Cl)(Cl)Cl)cc1`: the displacement was -4.3%.

Regarding `COc1cc(-c2ccc(NCN3C(=O)c4ccccc4C3=O)c(OC)c2)ccc1NCN1C(=O)c2ccccc2C1=O`, the displacement worked out at 3.2%.

Regarding `COc1cc(NC(=O)c2ccc(-c3ccc([N+](=O)[O-])cc3C)o2)ccc1NC(=O)c1ccco1`, the displacement is -21.8%.

Take `COc1cc(NC(=O)c2ccc(Br)cc2)cc([N+](=O)[O-])c1`: the displacement was 0.6%.

Regarding `CC(Oc1ccc(Cl)cc1Cl)C(=O)Nc1ncccn1` (configuration not stated), the displacement is -3%.

In the case of `CCOc1cccc(=O)c2c(C)oc(C)c12`, the displacement stood at 16.8%.

For `O=C(Nc1cccc(Cl)c1)Nc1ccccc1C(=O)N1CCN(c2ccc(F)cc2)CC1`, the displacement was -3.6%.

Consider `O=C1C(Cl)=CC(=NS(=O)(=O)c2ccc(Cl)cc2)c2ccccc21`, for which the displacement came to 5.9%.

As to `CC(=O)Oc1ccc(/C=C(\NC(=O)c2ccccc2)C(=O)NCC(=O)OCc2ccccc2)cc1`, the displacement came to 1.4%.

Take `O=C1C(C23CC4CC(CC(C4)C2)C3)C(=O)N(c2ccccc2)N1c1ccccc1`: the displacement is 0%.

With `COc1cc(-c2nnc(SCc3c(F)cccc3Cl)o2)cc(OC)c1OC`, the displacement was -12%.

On to `C=CCn1c(Cc2ccccc2)nc2c(cnn2-c2ccccc2)c1=O`, for which the displacement is 10.6%.

Consider `CCOc1ccc(C(=O)Nc2c(C)cc(Br)cc2C)cc1`, for which the displacement came to 10.5%.

With `CCc1ccc(NC(=O)c2cc([N+](=O)[O-])ccc2Cl)cc1`, the displacement was determined as 3.9%.

Consider `O=C1C2C(c3ccccc3)C=CC(c3ccccc3)C2C(=O)N1c1cccnc1` (configuration not stated), for which the displacement amounted to 12%.

For `O=C1C(=O)N(c2cccc(Cl)c2)C(c2cccc(F)c2)/C1=C(\O)c1ccccc1` (configuration not stated), the displacement was 1.6%.

As for `O=C(O)CCC(=O)Nc1cccc(Oc2ccc3c(c2)C(=O)N(c2cccc(NC(=O)CCC(=O)O)c2)C3=O)c1`, the displacement came to 7.2%.

`O=C(Nc1ccc(NC(=O)c2ccc([N+](=O)[O-])cc2Cl)cc1Cl)c1ccco1`: the displacement was -2%.

In the case of `O=C(N/N=C/c1ccc(OCc2ccccc2)cc1)C(O)c1ccccc1` (configuration not stated), the displacement was 3.9%.

As for `CCCOC(=O)c1c(NC(=O)c2ccccc2OC)sc2c1CCC(C)C2` (configuration not stated), the displacement was -5.1%.

`Cc1ccc2c(c1)-c1c(ssc1=S)C(C)(C)N2C(=O)COc1nc2ccccc2s1`: the displacement was -3.4%.

Consider `Clc1ccc(CSc2ncn[nH]2)cc1`, for which the displacement came to 11.8%.

Regarding `Clc1ccc(OCC2COCCO2)cc1` (configuration not stated), the displacement came out at 5.7%.

For the compound `COc1ccc(/C=N/NC(=O)c2cccc(Cl)c2)c2ccccc12`, the displacement was -9.7%.

In the case of `CC(=O)c1ccc(N=C2c3ccccc3C(=O)C2c2ccc3ccccc3c2)cc1` (configuration not stated), the displacement stood at 2.8%.

Regarding `O=C1ON=C(c2ccc(Cl)cc2)/C1=C/c1ccccc1Cl`, the displacement is -4.6%.

Turning to `COc1ccc(Cc2c(O)nc(SCC(=O)Nc3ccc(OC)cc3)[nH]c2=O)cc1`, the displacement was -3.8%.

Take `O=C(NC(Nc1ccc(I)cc1)C(=O)c1ccccc1)c1ccco1` (configuration not stated): the displacement is -3.6%.

Turning to `O=C(N/N=C\c1ccccc1O)c1cc(-c2ccccc2)nc2ccccc12`, the displacement was -0.6%.

Regarding `Cc1cc2c(cn1)/C(=C\C=C\N(C)C)c1ccccc1-2`, the displacement was -5.8%.

For the compound `O=C(c1cc([N+](=O)[O-])ccc1F)n1nnc2ccccc21`, the displacement was 8.3%.

On to `CC1=C(C(=O)OC2CCCC2)C(c2cccc(O)c2)C2=C(CC(c3ccc(Cl)cc3)CC2=O)N1` (configuration not stated), for which the displacement was -22.9%.

For `COc1ccc2ccccc2c1C1NN=C(c2ccc(C)cc2)S1` (configuration not stated), the displacement is -6.3%.

In the case of `O=C(COc1ccc(Cl)cc1)N/N=C/c1ccc(I)o1`, the displacement is -6%.

On to `Cc1cc(C)nc(NN2C(=O)/C(=C/c3ccccc3)SC2=S)n1`, for which the displacement is -25.2%.

For `COc1cc(/C=C/c2nc(O)c([N+](=O)[O-])c(=O)[nH]2)ccc1OCc1ccccc1`, the displacement is 18.3%.

Regarding `COc1ccc(-c2cc(/N=C/C(C(C)=O)=C(\C)O)n(-c3ccccc3)n2)cc1`, the displacement was -0.2%.

With `COc1ccc(Cl)cc1NC(=O)CSCc1cccc(Br)c1`, the displacement was 1%.

Regarding `O=C(Nc1ccccn1)c1cc(S(=O)(=O)N2CCOCC2)ccc1Cl`, the displacement was 11.7%.

As for `CC(=O)C1=C(O)C(=O)N(CC2CCCO2)C1c1ccc(Br)cc1` (configuration not stated), the displacement turned out to be 0.5%.

Turning to `O=C1NC(=S)N/C1=C/c1cc([N+](=O)[O-])ccc1Cl`, the displacement came out at 19.8%.

For the compound `CC(C)NC(=O)c1cnn2c1NC(c1ccc(Br)cc1)CC2C(F)(F)F` (configuration not stated), the displacement came to 0.6%.

`Cc1ccc(-n2c(C)cc(/C=N/NC(N)=S)c2C)cc1`: the displacement was -19.1%.

Regarding `Cc1ccccc1SCCNC(=O)c1ccccc1I`, the displacement is -23.9%.

For `NNC(=Nc1ccccc1)c1ccccn1`, the displacement worked out at 3.2%.

As for `COc1cc(C(=O)NC(NC(=S)Nc2cccc(C)c2)C(Cl)(Cl)Cl)cc(OC)c1OC` (configuration not stated), the displacement was 5.9%.

The values are drawn from PubChem BioAssay AID1240 (Sanford-Burnham Center for Chemical Genomics, 2008).
